# Reference: patent US12617771B2, “Diphenylpyrazole compound, and preparation method therefor and application thereof” (NORTHWEST A&F UNIVERSITY, priority 2021, dated 2026)
# For at least one compound, name, drawing or mass did not settle the structure.
# Tests used:
# Format in all cases: biochemical
# [1] = target: Plutella xylostella GSTs; test: Inhibition of total GSTs enzyme of Plutella xylostella (CDNB method)
# Method: (§1) Experiment: About 50 mg of larvae/nymphs of nine major pests such as Plutella xylostella, Mythimna separata, Pyrausta nubilalis, Chilo suppressalis, Nilaparvata lugens, Spodoptera frugiperda, Helicoverpa armigera, Carposina sasakii, Spodoptera litura were taken, grounded in a mortar pre-cooled at −80° C., and then 1 mL of 100 mM sodium phosphate buffer (1 mM EDTA, pH 7.2) was added and fully homogenized. The homogenate was transferred to a 1.5 mL centrifuge tube at 4° C., and centrifuged at 14,000 g for 30 minutes, and the supernatant was transferred to a new centrifuge tube as the GSTs total enzyme. The protein concentrations of the above total enzymes were determined using the BCA method.
# (§2) 100 μL of PBS buffer (100 mM, pH 7.2) containing 1 mM GSH was taken and placed in a 96-well plate, 5 μg of insect total GSTs enzymes and an appropriate concentration of compounds PXG1-PXG29 (29 compounds) of the present invention were added to each well, after uniformly mixing, and allowed to stand at 30° C. for 10 min. Then 100 μL of PBS buffer (100 mM, pH 7.2) containing 1 mM CDNB was added to each well. Immediately after mixing, the mixture was placed in a microplate reader to measure the absorbance at a wavelength of 340 nm (A 340) once every 1 min, the measurement was carried out continuously for 5 min, the light absorption values of each measuring point were recorded and the inhibition rate in vitro of the compounds with different concentrations against insects total GSTs enzymes were calculated. Each group of assays was repeated three times, and total GSTs enzymes inactivated at 100° C. for 5 min were used as negative controls, and GTX was used as positive controls. GraphPad Prism 5 software was used for analysis and calculation of IC50. Relative inhibition was calculated using the following formula:
# (§3) [formula] • wherein, A340 is the change of A340 within 5 minutes for the control group, and A340t is the change of A340 within 5 minutes for the experimental group.
# [2] = target: Carposina sasakii GSTs; test: Inhibition of total GSTs enzyme of Carposina sasakii (CDNB method)
# Method: as §1, §2, §3
# [3] = target: Spodoptera litura GSTs; test: Inhibition of total GSTs enzyme of Spodoptera litura (CDNB method)
# Method: as §1, §2, §3
# [4] = target: Mythimna separata GSTs; test: Inhibition of total GSTs enzyme of Mythimna separata (CDNB method)
# Method: as §1, §2, §3
# [5] = target: Pyrausta nubilalis GSTs; test: Inhibition of total GSTs enzyme of Pyrausta nubilalis (CDNB method)
# Method: as §1, §2, §3
# [6] = target: Chilo suppressalis GSTs; test: Inhibition of total GSTs enzyme of Chilo suppressalis (CDNB method)
# Method: as §1, §2, §3
# [7] = target: Nilaparvata lugens GSTs; test: Inhibition of total GSTs enzyme of Nilaparvata lugens (CDNB method)
# Method: as §1, §2, §3
# [8] = target: Spodoptera frugiperda GSTs; test: Inhibition of total GSTs enzyme of Spodoptera frugiperda (CDNB method)
# Method: as §1, §2, §3
# [9] = target: Helicoverpa armigera GSTs; test: Inhibition of total GSTs enzyme of Helicoverpa armigera (CDNB method)
# Method: as §1, §2, §3
SMILES,IC50 [1],100 μM Inhibition rate % [1],IC50 [2],100 μM Inhibition rate % [2],IC50 [3],100 μM Inhibition rate % [3],IC50 [4],100 μM Inhibition rate % [4],IC50 [5],100 μM Inhibition rate % [5],IC50 [6],100 μM Inhibition rate % [6],IC50 [7],100 μM Inhibition rate % [7],IC50 [8],100 μM Inhibition rate % [8],IC50 [9],100 μM Inhibition rate % [9]
"O=C(NNC(=O)c1cc(-c2ccccc2)nn1-c1ccccc1)c1ccc(=O)[nH]n1 [PXG27, N′-(1,3-diphenyl-1H-pyrazol-5-yl-carbonyl)-6-oxo-1,6-dihydropyridazin-3-yl-carbohydrazide]",> 100 µM,42.68%,> 100 µM,43.24%,> 100 µM,45.08%,> 100 µM,45.15%,> 100 µM,46.93%,34.5 µM,68.13%,39.1 µM,66.99%,> 100 µM,46.58%,> 100 µM,44.63%
"COc1cccc(C2(C)NC(=O)N(NC(=O)c3cc(-c4ccccc4)nn3-c3ccccc3)C2=O)c1 (stereo not drawn) [PXG17, N-[4-(3-methoxyphenyl)-4-methyl-2,5-dioxaimidazolin-1-yl]-1,3-diphenyl-1H-pyrazol-5-yl-carboxamide]",> 100 µM,−1.63%,> 100 µM,12.40%,> 100 µM,−4.14%,> 100 µM,−4.94%,> 100 µM,12.14%,> 100 µM,−5.11%,> 100 µM,−16.13%,> 100 µM,2.26%,> 100 µM,−9.63%
